In PubChem BioAssay (NCATS) one finds Potency data, which are given here for six compounds.

The structures appear in SMILES notation. Results filed as inconclusive are left out. Calls follow the shape of the dose curve; as a rule, active = well fitted curve in the direction sought with a large enough effect; inconclusive = small, poorly fitted or top-dose-only effect, or another doubt; inactive = no such curve, though single readings can be large; an effect the other way counts as inactive or inconclusive. A structure can be active in one record and inactive in another. Certain results were filed several times, with different values. This list holds those alone. The source may hold further records. The values listed for one entry repeat one measurement in other runs, samples, wells, individuals or studies. A tag in brackets gives the origin of a value. A, B and so on number the origins entry by entry.

Experiment [1] in a line: qHTS of pediatric cancer cell lines to identify multiple opportunities for drug repurposing: Primary screen for BT-12 cells (AID 1347101). Also: nearly all actives have a fitted effect of over 25% in size. The method, boiled down:
(§1)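 Cells (500-1,000/well) rested 5 h, then received compounds for 48 h; metabolically active cells were measured by CellTiter-Glo luminescence. Final concentrations spanned up to 46 µM (MIPE, 11-point) or 0.59 nM-46 µM (NPC, 8-point) in primary screens, 11-point in follow-ups.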
On the technique in general: qHTS replaces the single test concentration by a dilution series.

Experiment [2] is described as follows: qHTS of pediatric cancer cell lines to identify multiple opportunities for drug repurposing: Primary screen for RD cells (AID 1347104). Also: nearly all actives have a fitted effect of over 55% in size. The procedure, abridged: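 Phenotypic viability qHTS, 48 h compound exposure, CellTiter-Glo luminescence read-out; multi-concentration dosing so that potency and efficacy derive directly from the primary screen's curves.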

Experiment [3] in a line: qHTS of pediatric cancer cell lines to identify multiple opportunities for drug repurposing: Primary screen for control Hh wild type fibroblast cells (AID 1347106). Also: nearly all actives have a fitted effect of over 55% in size. From the text: Drug repurposing or repositioning has been offered as a strategy for drug development in oncology programs. This approach has special potential for childhood cancers and other rare or orphan diseases, where the expected return on new drug development has been a disincentive to pharmaceuticals.
In this project we exploit the poly-pharmacology of drugs to discover new indications via phenotypic screening of a panel of 19 well-characterized cell lines derived from solid tumors seen in children and adolescents. The goal is to identify approved drugs with previously unrecognized anticancer properties that has the potential to reveal new mechanisms and biological processes involved in carcinogenesis or drug resistance. We employed a titration-based paradigm (quantitative high-throughput screening or qHTS), where all compounds were tested at multiple concentrations for their effect on cell viability. […] We screened the NIH Chemical Genomics Center (NCGC) Pharmaceutical Collection (NPC) and Mechanism Interrogation Plate (MIPE) small molecule collections of approved and investigational compounds against these cell lines; and measured metabolically active cells after 48 hours of compound treatment as a proxy for cell viability. […]
[1] Shen, M et al. Quantitative high-throughput phenotypic screening of pediatric cancer cell lines identifies multiple opportunities for drug repurposing. […]

A short description of experiment [4]: qHTS of pediatric cancer cell lines to identify multiple opportunities for drug repurposing: Confirmatory screen for Rh30 cells (AID 1347126). Also: nearly all actives have a fitted effect of over 55% in size. The method, boiled down: as §1
The test system of experiment [5] is Zika virus NS2B-NS3 protease. The experiment is described as follows: Primary screen GU AMC qHTS for Zika virus inhibitors (AID 1347154). Also: nearly all actives have a fitted effect of over 70% in size. The procedure, abridged:
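Fluorogenic AMC-substrate cleavage by noncovalent NS2B-NS3 protease complex (25 nM, pH 8.0 Tris buffer with Tween 20) followed for 15 minutes at room temperature (~20% conversion). Percent inhibition from ex340/em450 signal change, fitted by 4-parameter Hill equation.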
Potency is read from the fitted curve at half-maximal effect.

With `O=c1oc2c(O)c(O)cc3c(=O)oc4c(O)c(O)cc1c4c23`, the Potency entry in experiment [1] is “inactive [sample A] and active: 27.3 µM [sample B]”.

As for `CC(C)(C#N)c1cc(Cn2cncn2)cc(C(C)(C)C#N)c1`, in experiment [2], the Potency result is “inactive [sample A] and active: 26.4 µM [sample B]”.

In the case of `C[C@@H](CN1CC(=O)NC(=O)C1)N1CC(=O)NC(=O)C1`, in experiment [2], the Potency result was “inactive [sample A] and active: 16.6 µM [sample B]”.

As to `COC(=O)Nc1nc2ccc(C(=O)c3ccccc3)cc2[nH]1`, the Potency result in experiment [3] is “inactive [sample A] and active: 8.33 µM [sample B]”.

In the case of `Nc1nc(=S)c2[nH]cnc2[nH]1`, the Potency entry in experiment [4] is “active: 11.7 µM [sample A] and inactive [sample B]”.

As for `CNS(=O)(=O)Cc1ccc2[nH]cc(CCN(C)C)c2c1`, the Potency result in experiment [5] was “inactive [sample A] and active: 30.4 µM [sample B]”.
